Reference: the supplement of paper PMC9151546
Repeats are few or missing, and single values can be far off.

Experiments:
CHO-K1 [1] = experiment: relative survival (nuclei to bead ratio vs DMSO control) (% of vehicle control); higher = more surviving cells
Description: (§1)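 Flow-cytometric in vitro micronucleus assay (Litron MicroFlow) in CHO-K1 cells in 96-well plates, 19 concentrations (4.5-200 µM, n=1 per concentration). Without S9, cells were exposed for 24 h and sampled at 48 h. With Aroclor 1254-induced rat liver S9, cells were exposed for 3-4 h and sampled at 27-28 h. Read-outs are %MN and %hypodiploid nuclei relative to nucleated events, and relative survival as the nuclei-to-bead ratio versus the 1% DMSO vehicle control (x100).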

CHO-K1 [2] = experiment: micronucleus frequency (% of nucleated events); higher = more micronuclei (genotoxic)
CHO-K1 [3] = experiment: hypodiploid nuclei frequency (% of nucleated events); higher = more hypodiploid events (aneugenic)
Description: as §1
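Throughout, for hypodiploid nuclei frequency (% of nucleated events): hypodiploid nuclei gated on a flow cytometer with 488 nm excitation after SYTOX Green staining, cultures at 37 °C, positive controls vinblastine without S9 and cyclophosphamide with S9.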
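Throughout, for micronucleus frequency (% of nucleated events): cells lysed with nuclei stained by SYTOX Green, then micronucleus-gated events counted against nucleated events by flow cytometry with 488 nm excitation.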
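Throughout, for relative survival (nuclei to bead ratio vs DMSO control): Lysed-cell nuclei stained with SYTOX Green and counted against counting beads by flow cytometry at 488 nm excitation, with vinblastine (no S9) and cyclophosphamide (plus S9) as positive controls.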

Cc1cccc(C)c1O [2,6-Dimethylphenol]
Details	hypodiploid nuclei frequency, CHO-K1 [3] [%]	micronucleus frequency, CHO-K1 [2] [%]	relative survival, CHO-K1 [1]
concentration: 4.5 (µM), S9 metabolic activation: with S9, exposure time: 3-4 hours	0.3	1.74	111
concentration: 4.5 (µM), S9 metabolic activation: without S9, exposure time: 24 hours	0.54	1.6	71.6
concentration: 5.63 (µM), S9 metabolic activation: with S9, exposure time: 3-4 hours	0.22	1.2	116
concentration: 5.63 (µM), S9 metabolic activation: without S9, exposure time: 24 hours	0.74	1.54	77.2
concentration: 7.04 (µM), S9 metabolic activation: with S9, exposure time: 3-4 hours	0.1	1.46	104
concentration: 7.04 (µM), S9 metabolic activation: without S9, exposure time: 24 hours	0.56	1.48	74.3
concentration: 8.8 (µM), S9 metabolic activation: with S9, exposure time: 3-4 hours	0.38	2.02	104
concentration: 8.8 (µM), S9 metabolic activation: without S9, exposure time: 24 hours	0.74	2.12	85.5
concentration: 11 (µM), S9 metabolic activation: with S9, exposure time: 3-4 hours	0.3	1.64	100
concentration: 11 (µM), S9 metabolic activation: without S9, exposure time: 24 hours	0.74	2.04	95.3
concentration: 13.7 (µM), S9 metabolic activation: with S9, exposure time: 3-4 hours	0.24	1.14	97.4
concentration: 13.7 (µM), S9 metabolic activation: without S9, exposure time: 24 hours	0.8	1.86	66.3
concentration: 17.2 (µM), S9 metabolic activation: with S9, exposure time: 3-4 hours	0.34	1.64	97.2
concentration: 17.2 (µM), S9 metabolic activation: without S9, exposure time: 24 hours	0.68	2.06	82.6
concentration: 21.5 (µM), S9 metabolic activation: with S9, exposure time: 3-4 hours	0.18	1.42	118
concentration: 21.5 (µM), S9 metabolic activation: without S9, exposure time: 24 hours	0.6	1.88	98.7
concentration: 26.8 (µM), S9 metabolic activation: with S9, exposure time: 3-4 hours	0.24	1.94	120
concentration: 26.8 (µM), S9 metabolic activation: without S9, exposure time: 24 hours	0.56	1.56	77.2
concentration: 33.6 (µM), S9 metabolic activation: with S9, exposure time: 3-4 hours	0.3	1.62	114
concentration: 33.6 (µM), S9 metabolic activation: without S9, exposure time: 24 hours	0.64	1.64	91.4
concentration: 41.9 (µM), S9 metabolic activation: with S9, exposure time: 3-4 hours	0.44	1.86	128
concentration: 41.9 (µM), S9 metabolic activation: without S9, exposure time: 24 hours	0.68	1.26	85.5
concentration: 52.4 (µM), S9 metabolic activation: with S9, exposure time: 3-4 hours	0.18	1.82	116
concentration: 52.4 (µM), S9 metabolic activation: without S9, exposure time: 24 hours	0.68	1.44	87.3
concentration: 65.5 (µM), S9 metabolic activation: with S9, exposure time: 3-4 hours	0.12	2.2	126
concentration: 65.5 (µM), S9 metabolic activation: without S9, exposure time: 24 hours	0.74	2.04	89.7
concentration: 81.9 (µM), S9 metabolic activation: with S9, exposure time: 3-4 hours	0.3	1.76	123
concentration: 81.9 (µM), S9 metabolic activation: without S9, exposure time: 24 hours	0.86	2.8	114
concentration: 102 (µM), S9 metabolic activation: with S9, exposure time: 3-4 hours	0.18	1.58	116
concentration: 102 (µM), S9 metabolic activation: without S9, exposure time: 24 hours	1.18	2.34	84.4
concentration: 128 (µM), S9 metabolic activation: with S9, exposure time: 3-4 hours	0.22	1.58	96.1
concentration: 128 (µM), S9 metabolic activation: without S9, exposure time: 24 hours	1	2.3	83
concentration: 160 (µM), S9 metabolic activation: with S9, exposure time: 3-4 hours	0.16	1.36	114
concentration: 160 (µM), S9 metabolic activation: without S9, exposure time: 24 hours	1.04	2.56	92.2
concentration: 200 (µM), S9 metabolic activation: with S9, exposure time: 3-4 hours	0.32	1.38	111
concentration: 200 (µM), S9 metabolic activation: without S9, exposure time: 24 hours	1.1	2.62	81.3
